# Experimental data taken from PubChem BioAssay AID485294 (National Center for Advancing Translational Sciences (NCATS), 2010).
# About 150 (0.041%) of roughly 370,000 compounds were called active. The inconclusive results got no clear call from the source; some entries with a clear call stand among them for comparison. Calls come from the whole dose curve; as a rule, active = well fitted inhibition curve with a large enough effect; inconclusive = small, poorly fitted or top-dose-only effect; inactive = flat fitted curve, though single readings scatter. No potency is given beside an inconclusive call; the fits are too rough.
# Target: Beta-lactamase (Escherichia coli (strain K12)) (UniProt P00811)
# UniProt P00811, sequence (P00811 whole entry, looked up): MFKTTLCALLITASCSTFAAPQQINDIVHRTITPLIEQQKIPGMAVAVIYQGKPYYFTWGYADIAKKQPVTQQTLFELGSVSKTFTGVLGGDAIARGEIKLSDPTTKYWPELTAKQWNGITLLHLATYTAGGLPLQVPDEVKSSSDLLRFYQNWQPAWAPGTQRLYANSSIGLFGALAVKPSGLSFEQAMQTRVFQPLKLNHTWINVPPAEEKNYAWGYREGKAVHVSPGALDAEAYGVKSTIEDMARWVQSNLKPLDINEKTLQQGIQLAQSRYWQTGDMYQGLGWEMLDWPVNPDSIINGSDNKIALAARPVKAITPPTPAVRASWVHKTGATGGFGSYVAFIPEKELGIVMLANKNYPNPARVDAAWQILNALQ
# Assay: qHTS Inhibitors of AmpC Beta-Lactamase (assay with detergent); note: nearly all actives have a fitted effect of over 25% in size
# Conditions: AmpC hydrolysis of nitrocefin, absorbance 480 nm, 0.01% Triton; series mostly up to 114 µM
# How it was run: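 20 mM phosphate pH 7.0 + 0.01% (detergent screen) or 0.0001% Triton X-100; 5.3 nM AmpC reagent; cpd preinc 15 min RT; nitrocefin (800 uM stock) to start; A480 q20 s × 4 min; Activity was normalised to no-enzyme and no-compound control wells.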
# Potency is the fitted concentration of half-maximal effect; tags give direction and shape of the fitted curve.
row,SMILES,Potency
1,C=CCN1C(=O)CSC1=Nc1cccc(O)c1,inactive
2,COc1ccc(-c2[nH]c(-c3ccc(Cl)cc3)nc2SCC(=O)Nc2nccs2)cc1,"inconclusive [inhibitor, partial curve, poor fit]"
3,COc1ccc(/C=N/Nc2ccc(C(=O)O)cc2)cc1Br,inactive
4,O=C(Nc1nnc(-c2ccccc2)o1)C1CCCN1S(=O)(=O)c1cccs1 (centres undefined),"inconclusive [inhibitor, full curve, poor fit]"
5,Cc1ccccc1NC(=O)c1cc(C(=O)c2cc(Cl)ccc2O)cn(-c2ccccc2C)c1=O,"inconclusive [inhibitor, partial curve, poor fit]"
6,COc1ccc(NC(=O)Oc2ccccc2)cc1Cl,inactive
7,CCOc1cc(S(=O)(=O)NCc2ccccn2)c(C)cc1C,inactive
8,CCc1ccc(S(=O)(=O)NCCc2cn3ccsc3n2)cc1,inactive
9,COc1ccc(-n2c(SCC(=O)O)nnc2-c2ccc(NC(=O)c3ccccc3)cc2)cc1,inactive
10,CC(C)Cc1nnc(NC(=O)c2ccc3c(c2)OCCO3)s1,"inconclusive [inhibitor, full curve]"
11,Cc1cccc(CNC(=O)c2cnc3c(-c4cccc(C)c4)c(C)nn3c2C)c1,inactive
12,COc1ccccc1-c1cc(C(F)(F)F)nc(S(=O)(=O)CCCC(=O)N2CCOCC2)n1,"inconclusive [inhibitor, full curve]"
13,CCS(=O)(=O)N1CCC(c2nc3ccccc3[nH]2)CC1,"inconclusive [inhibitor, single point]"
14,O=S(=O)(Nc1ccc(Cl)cn1)c1cnc(Cl)c(Br)c1,"inconclusive [inhibitor, single point]"
15,CCN(CCNC(=O)C1CCN(c2nnc(-n3cccc3)s2)CC1)c1ccccc1,"inconclusive [inhibitor, full curve, poor fit]"
16,O=C(N[C@@H](c1ccccc1)[C@@H]1C[C@H]1C(=O)NCc1ccccn1)OCc1ccccc1,"inconclusive [inhibitor, full curve, poor fit]"
17,CCN(CC)C(=O)C[n+]1cccc(/C=N/O)c1,"inconclusive [inhibitor, full curve]"
18,O=C(CNc1n[nH]c(=O)[nH]c1=O)N/N=C/c1cccnc1,"inconclusive [inhibitor, full curve, poor fit]"
19,COCCN(C(=O)COC(=O)c1ccc(C)o1)c1c(N)n(Cc2ccccc2)c(=O)[nH]c1=O,"inconclusive [inhibitor, full curve, poor fit]"
20,O=C(NCCCN1CCCC1=O)c1cccs1,"inconclusive [inhibitor, full curve]"
21,Cc1cc(C)n2cc(CSc3nnnn3-c3ccccc3)nc2n1,inactive
22,CC1CCCC(C)N1S(=O)(=O)c1ccc(NC(=O)CCN2C(=O)C3CC=CCC3C2=O)cc1 (centres undefined),"inconclusive [inhibitor, partial curve]"
23,COc1ccc(NC(=O)CN(C)C(=O)c2cc(CN3C(=O)c4ccccc4C3=O)ccc2OC)cc1,"inconclusive [inhibitor, partial curve]"

row,SMILES,Potency
1,Cc1ccc(-n2ncc3c(=O)n(CC#N)cnc32)cc1C,inactive
2,COc1ccc(C(=O)Nc2ccc([N+](=O)[O-])cn2)cc1OC,"inconclusive [inhibitor, full curve, poor fit]"
3,Cc1ccc(C(=O)Nc2ccc3c(c2)OCCO3)c(C)c1,"inconclusive [inhibitor, full curve]"
4,CC(=O)N1c2ccc(S(=O)(=O)N3CCC(C(=O)NCc4ccc(F)cc4)CC3)cc2CC1C (centres undefined),"inconclusive [inhibitor, full curve, poor fit]"
5,O=C(NNC(=S)NC(=O)c1ccccc1)c1ccc(O)cc1,"inconclusive [inhibitor, partial curve, poor fit]"
6,OCCNCc1c(OCc2ccc(Cl)cc2)ccc2ccccc12,inactive
7,CCOC(=O)c1cnn(Cc2ccccc2)c1N,"inconclusive [inhibitor, single point]"
8,COc1ccc(N2CCN(c3oc(-c4ccc(OC)c(OC)c4)nc3C#N)CC2)cc1,"inconclusive [inhibitor, partial curve]"
9,Fc1ccccc1N1CCN(c2cnc3ccccc3n2)CC1,inactive
10,COc1cccc(-c2nnc3sc(C4CCCCC4)nn23)c1,"inconclusive [inhibitor, full curve, poor fit]"
11,COC(=O)C1=C(N)Oc2cc(C)n(Cc3cccnc3)c(=O)c2C1c1ccc(OC)c(OC)c1 (centres undefined),"inconclusive [inhibitor, single point]"
12,Cc1c(NCc2nc3ccccc3[nH]2)c(=O)n(-c2ccccc2)n1C,"inconclusive [inhibitor, full curve]"
13,Cc1cc(OC(=O)c2c(F)cc(F)cc2F)nc(C)n1,"inconclusive [inhibitor, partial curve]"
14,CCOC(=O)C1=C(COC(=O)COc2cccc(C)c2C)NC(=O)NC1C (centres undefined),"inconclusive [inhibitor, full curve, poor fit]"
15,CC1CCCCN1C(=O)C12CCC(C)(/C(=N/O)C1)C2(C)C (centres undefined),"inconclusive [inhibitor, full curve, poor fit]"
16,O=C(CCNC(=O)c1ccccc1Cl)NCCCSc1ccccc1,inactive
17,O=C(NCCC1=CCCCC1)C1CCC(CNS(=O)(=O)c2ccccc2)CC1 (centres undefined),"inconclusive [inhibitor, full curve, poor fit]"
18,CCn1nnnc1NCc1ccc(SC)cc1,"inconclusive [inhibitor, full curve, poor fit]"
19,C=CCNc1nc(N)c([N+](=O)[O-])c(Nc2ccccc2OC)n1,inactive
20,Cc1ccc(CN2CCN(C3CCC3)CC2CCO)cc1 (centres undefined),"inconclusive [inhibitor, full curve, poor fit]"
21,CCOC(=O)N1CCN(C(=O)Cc2ccc(C)cc2)CC1,"inconclusive [inhibitor, full curve, poor fit]"
22,Cc1c(C)n2c(SCC(=O)NC3CCCC3)nnc2[nH]c1=O,"inconclusive [inhibitor, full curve, poor fit]"
23,c1cc(CNC2=NCCCCC2)ccn1,"inconclusive [inhibitor, full curve, poor fit]"

row,SMILES,Potency
1,CC1=C(C(=O)Nc2ccccc2)C(c2ccncc2)n2nc(SCc3ccccc3Cl)nc2N1 (centres undefined),inactive
2,COc1ccc(OC)c(-n2cnnn2)c1,"inconclusive [inhibitor, full curve, poor fit]"
3,c1ccc(C(c2nnnn2Cc2ccco2)N2CCN(C3CCCC3)CC2)cc1 (centres undefined),inactive
4,Cc1ccc(NC(=O)CN(C)C(=O)c2cccc(S(=O)(=O)NCc3ccccc3)c2)cc1,"inconclusive [inhibitor, full curve, poor fit]"
5,CCOC(=O)C1CCN(CCC(=O)Nc2ccc(Cl)cc2)CC1,inactive
6,O=c1c2ccccc2nc2c3ccccc3c3nncn3n12,"inconclusive [inhibitor, full curve]"
7,CCC(=O)N1CCc2cc(Br)cc(S(=O)(=O)CCC(=O)N3CCN(c4cccc(C(F)(F)F)c4)CC3)c21,inactive
8,COc1ccc(-n2nc(C(N)=O)nc2-c2ccccc2)cc1,"inconclusive [inhibitor, full curve, poor fit]"
9,O=C(COc1ccc2ccccc2c1)Nc1cccnc1Cl,"inconclusive [inhibitor, full curve, poor fit]"
10,Cc1ccc(C2(C)NC(=O)N(CC(=O)Nc3nc(-c4ccccn4)cs3)C2=O)cc1 (centres undefined),inactive
11,CC(C)c1ccccc1NC(=O)CN1C(=O)c2ccccc2C1=O,"inconclusive [inhibitor, full curve, poor fit]"
12,Cc1ccc(/C=C2\SC(=S)N(NS(=O)(=O)c3ccc(C)cc3)C2=O)cc1,inactive
13,CC(=O)c1cccc(NC(=O)/C=C/c2ccc([N+](=O)[O-])s2)c1,inactive
14,O=C(O)C1Cc2ccccc2CN1C(=O)CCl (centres undefined),inactive
15,CCOC(=O)c1c(NC(=O)CSc2c[nH]c3ccccc23)sc2c1CCC2,"inconclusive [inhibitor, full curve, poor fit]"
16,CCOc1ccc2oc(-c3ccccc3)c(C(=O)O)c2c1,inactive
17,COc1ccc(CNC(=O)C2=CCN(S(=O)(=O)c3ccc(C)cc3)CC2)cc1,inactive
18,CCOc1ccccc1N(CC(=O)NCCSCc1ccco1)S(=O)(=O)c1ccccc1,"inconclusive [inhibitor, partial curve, poor fit]"
19,CCOc1ccccc1CN1C2CCC1CC(c1ccc(C)cc1)C2 (centres undefined),"inconclusive [inhibitor, full curve, poor fit]"
20,CCC(=O)Nc1cccc(NC(=O)c2cccc([N+](=O)[O-])c2C)c1,"inconclusive [inhibitor, full curve]"
21,Cc1ccccc1OCCNC(=O)c1ccc2ccccc2n1,"inconclusive [inhibitor, full curve, poor fit]"
22,CN(C)c1ccc(/C=C2\CCC/C(=C\c3ccccc3)C2=O)cc1,"inconclusive [inhibitor, full curve]"
23,CC1=C(C(=O)OCC(C)C)C23C(=O)c4ccccc4C2(O1)OC(N)=C3C#N (centres undefined),"inconclusive [inhibitor, partial curve, poor fit]"
